Assay results taken from the supplement of paper PMC10338343.
± gives the standard deviation. Only a part is listed here, and it is no random draw.

System: MIWI (PIWIL1) piRISC loaded with L1MC piRNA (30 nt)
Assay: pre-steady-state target cleavage rate (min^-1); MIWI and MILI are mouse PIWI proteins and EfPiwi is from a freshwater sponge; tags in brackets are library labels; higher = faster piRNA-guided slicing of the target
Settings: guide: L1MC piRNA 5'p-UAACUAAAUACUAUGCAAGCUGUAGGUCCU
In short: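 Sequencing of uncleaved targets, normalised to depth and to weakly complementary targets, was the readout of this Cleave-'n-Seq assay. A transcribed, DNA-blocked target RNA library (0.1 nM) was mixed with 1 nM active affinity-purified piRISC carrying one synthetic guide, with or without 500 nM GTSF1 partner protein, in HEPES–potassium acetate buffer at 33 °C for 0–8 or 0–960 min. Three trials were pooled, k3 was capped at 0.0001 min^-1, and a burst-and-steady-state fit gave the pre-steady-state cleavage rate.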

[1] = auxiliary factor: 500 nM mouse GTSF1
[2] = auxiliary factor: none (no GTSF1)

Sequence | pre-steady-state target cleavage rate [1] | pre-steady-state target cleavage rate [2]
UCCUGGAUCAGCUGCAUAGUAUUUAGUUA | 0.277 ± 0.031 | 0.00498 ± 0.0023
UCGACCUACAGCUUGCAUACUAUUAAGUUA | 0.178 ± 0.018 | 0.0118 ± 0.0021
AGGACCUACAGCUUGCAUAGUUUUUUGUUA | 0.316 ± 0.024 | 0.0319 ± 0.0071
UCGACCUACACCUUGCAUAGUAUUUAGUAA | 0.769 ± 0.069 | 0.0378 ± 0.0082
AGGACCUACAGCUUGCAUUCUAUUUAGUUA | 0.372 ± 0.028 | 0.0121 ± 0.0035
UCCUGGUACAGCUUGCAUAGUUAUUAGUAA | 0.0627 ± 0.017 | 0.00413 ± 0.0036
UGGACCUACAGCUUGCAUAGAAUUUAGUAA | 0.356 ± 0.048 | 0.0167 ± 0.0059
UCCACCUAGAGCUUGCAUAGAAUUUAGUUA | 0.433 ± 0.059 | 0.0118 ± 0.0026
UCCUGGAUGUGCUUGCAUAGUAUUUACUUA | 0.114 ± 0.018 | 0.0211 ± 0.0042
UCCACCUACAGAUUGCAUAGUAUUUAGUUA | 1.07 ± 0.15 | 0.0219 ± 0.0041
UCCUGGAUCAGCUUGCCUAGUAUUUAGUUA | 0.899 ± 0.037 | 0.0222 ± 0.0046
UCCUGGAACAGCUUGCAUACUAUUUAGAUA | 0.0642 ± 0.016 | 0.00941 ± 0.0029
UCCACGUACAGCUUGCAUAGUAAUUAGUUA | 0.779 ± 0.034 | 0.0232 ± 0.0048
UCCUGGAUGUGCCUGCAUAGUAUUUAGUUA | 0.221 ± 0.024 | 0.0242 ± 0.0056
UGGACCUACAGCUUGGCAUAGUAUUUAGUUA | 1.01 ± 0.26 | 0.0197 ± 0.0048
UCGACCUACAGCUUGCAAUGUAUUUAGUUA | 0.54 ± 0.035 | 0.0055 ± 0.002
AGGACCUACAGCUUGCAUAGUAUAUAGUAA | 0.493 ± 0.058 | 0.0216 ± 0.0048
UCCUGGAACAGCUUGCAUACUAUUUAGUUA | 0.321 ± 0.025 | 0.0268 ± 0.0062
UCGACCUACACCUUGCAUUGUAUUUAGUUA | 0.688 ± 0.024 | 0.0243 ± 0.0058
UCGAGCUACAGCUUGCAUAGUAUUUUGUUA | 1.06 ± 0.06 | 0.0528 ± 0.0088
